The source of these data is PubChem BioAssay AID1346428 (National Center for Advancing Translational Sciences (NCATS), 2018).

Where “and” joins values, the source holds several entries; their conditions need not be identical. Equal entries are not always repeated. Among all 48,000 compounds or so, about 1,200 (2.5%) were called active. Inconclusive results (about 2%) are left out.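 How the source made its calls: active means activation of at least 60% and not above a set upper limit (about 1 call in 100 departs from these limits); inconclusive means activation of 40% to 60%, or above that upper limit; inactive means activation under 40%.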 Some of the results follow.

Sequence of UniProt O75388 (O75388 whole entry, looked up, the tested form may be a part): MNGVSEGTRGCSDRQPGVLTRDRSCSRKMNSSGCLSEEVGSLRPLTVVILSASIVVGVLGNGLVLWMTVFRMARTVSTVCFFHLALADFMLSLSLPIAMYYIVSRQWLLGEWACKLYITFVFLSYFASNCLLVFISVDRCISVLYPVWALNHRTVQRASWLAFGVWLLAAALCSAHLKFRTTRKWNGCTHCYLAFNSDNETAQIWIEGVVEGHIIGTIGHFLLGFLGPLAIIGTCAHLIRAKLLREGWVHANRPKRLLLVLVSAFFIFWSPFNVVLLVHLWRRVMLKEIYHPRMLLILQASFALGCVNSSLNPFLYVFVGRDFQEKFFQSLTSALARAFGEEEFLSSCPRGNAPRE

In the experiment the target is Probable G-protein coupled receptor 32 (Homo sapiens) (UniProt O75388). As to the kind of experiment: qHTS for Agonists of Human Resolvin D1 Receptor DRV1. Further: 0% is about no effect. Particulars: CHO-K1 GPR32 beta-arrestin PathHunter luminescence, 90 min; at 76.9 µM; stronger effect = higher value; zero percent set by DMSO-only wells. The method in brief:
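Agonism was scored as beta-arrestin recruitment to ProLink-fused GPR32 in stably transfected CHO-K1 cells, giving a chemiluminescent beta-Gal signal; compounds were incubated 90 min at 37 °C.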
Background: Quantitative high-throughput screening tests each substance at several concentrations.
Consider `CC(C)(C)c1ccc(CN(Cc2ccco2)c2cnc(S(C)(=O)=O)nc2C(=O)Nc2ccc(F)cc2)cc1`, for which the activation was inactive: -25.9%.
With `Cc1cc(C)c(NC(=O)Cn2c(=O)nc(-c3ccccc3)c3cc(Cl)ccc32)c(C)c1`, the activation is inactive: -10.9%.
The figure for `Cc1ccccc1CN1c2ccccc2-c2nc(SCC(N)=O)ncc2S1(=O)=O` is inactive: -12.2%; for `Cc1cc(=O)n(Cc2cccc(F)c2)c2c1c(C)nn2-c1cccc(F)c1` it is inactive: -7.56%.
Take `CCc1cccc(CC)c1-n1nnc2c(sc3nc(C)cc(C)c32)c1=O`: the activation was inactive: -10.7%.
The result for `Clc1ccc(OCc2nc3ccccc3n2Cc2ccccc2)c(Cl)c1` reads inactive: -2.45%; that for `CCc1ccc(-c2nn(CC(=O)Nc3ccccc3C)c3c2cnc2ccc(C)cc23)cc1`, inactive: -4.75%; that for `O=C(CSc1nc(-c2ccc(F)cc2)[nH]c1-c1ccccc1)Nc1ccccc1`, inactive: 12.3%.
The result for `COc1cc(NC(=O)c2nc3ccccc3nc2N2CCCCC2)cc(OC)c1OC` reads inactive: -16.8%.
Take `COc1cc(/C=C/c2nc(C#N)c(NCCc3ccccc3)o2)cc(OC)c1OC`: the activation is inactive: -24.9%.
As to `Cc1ccc(C)c(NC(=O)c2nn(C)c3c2CS(=O)(=O)c2ccccc2-3)c1`, the activation was inactive: -2.21%.
On to `CC(C)(C)C1CCc2c(sc3nnn(CCOc4ccccc4)c(=O)c23)C1` (stereo not drawn), for which the activation was inactive: 3.27%.
As to `Cc1ccc(-c2nn(CC(=O)NC3CCCC3)c3c2cnc2ccccc23)cc1`, the activation is inactive: -5.65%.
For `Cc1ccc(C)c(NC(=O)CN2C(=O)c3cccnc3Oc3ccc(C)cc32)c1`, the activation is inactive: -29.3%.
The result for `Cc1cccc(-c2nc(CSCC(=O)NCCc3ccc(Cl)cc3)c(C)o2)c1` reads inactive: 6.96%; that for `Cc1ccc(CNC(=O)c2ccc(-c3nc(CS(=O)c4ccccc4)c(C)o3)cc2)cc1` (stereo not drawn), inactive: 13.3%.
The result for `COCCn1ccc2c(OCC(=O)Nc3ccccc3F)cccc2c1=O` reads inactive: 48.2%; that for `O=C1N(c2ccccc2)c2ccccc2C1(Cc1ccncc1)Cc1ccncc1`, inactive: 5.54% and inactive: -4.94%.
As for `CCOC(=O)N1CCc2c(sc3c2c(=O)n(CCc2ccccc2)c(=O)n3CC(=O)Nc2cccc(C)c2)C1`, the activation was inactive: -10.7%.
The result for `CCOc1ccccc1NC(=O)Cn1c(=O)n(Cc2ccco2)c(=O)c2ccc(C(=O)NC3CCCC3)cc21` reads inactive: -0.938%; that for `Cc1cc(F)ccc1NC1(c2ccccc2)C(=O)c2ccccc2C1=O`, inactive: -74.1%; that for `CCc1ccccc1NC(=O)C1CCN(C(=O)N2CC(C)Oc3ccc(Cl)cc32)CC1` (stereo not drawn), inactive: -8.53%.
The figure for `COc1ccccc1NC(=O)N1CCC(CN2CCc3ccccc3C2)CC1` is inactive: -12.2%; for `COc1ccc(Cl)cc1NC(=O)Cn1nc(Cc2ccncc2)c2ccccc2c1=O` it is inactive: -16.2%; for `CCn1cc(C(=O)NCCc2ccc(OC)c(OC)c2)c(=O)c2cc(S(=O)(=O)N3CCC(C)CC3)ccc21` it is inactive: -36.8%.
The figure for `CCOc1ccc(-n2c(SCC(=O)N3CCCCCC3)nc3c([nH]c4ccccc43)c2=O)cc1` is inactive: -3.01%.
For `CC(C)COC(=O)c1ccc(N)cc1`, the activation was inactive: 2.58%.
The figure for `Cc1ccc(OC(=O)CSc2nnc(-c3cccs3)o2)cc1C` is inactive: -5.54%; for `Cc1ccc(NC(=O)c2sc3nc[nH]c(=O)c3c2C)cc1Cl` it is inactive: -16.2%; for `Cc1ccc(NC(=O)Cn2c(=O)oc3ccccc32)cc1C` it is inactive: -4.51%.
The result for `CCOc1ccc(N(CC(=O)Nc2ccccc2CC)S(=O)(=O)c2c(C)[nH]c(=O)[nH]c2=O)cc1` reads inactive: -4.86%; that for `Cc1c(Cl)cccc1-n1ncc(C(=O)NCc2cccs2)c1C1CCN(C(=O)OC(C)(C)C)CC1`, inactive: -9.07%.
Consider `COC(=O)c1c(NC(=O)c2cc(OC)c(OC)c(OC)c2Br)sc2c1CCC(C)C2` (stereo not drawn), for which the activation is inactive: -0.342%.
As to `Cc1cccc(NC(=O)c2cc(S(=O)(=O)N3CCN(c4ccccc4F)CC3)ccc2F)c1C`, the activation was inactive: -24.5%.
The figure for `COc1ccc(CNC(=O)CCn2nc(C)c3c(C)n(-c4ccccc4)nc3c2=O)c(OC)c1` is inactive: 8.24%.
`CNC(=O)Cn1c(=O)c2cccn2c2ccc(F)cc21`: the activation was inactive: -5.43%.
The result for `COc1cc(C2c3c(-c4ccc(C)cc4)n[nH]c3C(=O)N2c2ccc(F)cc2)ccc1O` (stereo not drawn) reads active: 104%; that for `O=C(CCNS(=O)(=O)c1cccc2nsnc12)NCc1ccccc1`, inactive: 22.3%; that for `CC(C)CNc1ncnc2c1nnn2C`, inactive: -11.7%.
Take `COc1ccc(CNC(=O)c2ccc3nc(CCc4ccccc4)oc3c2)c(OC)c1`: the activation was inactive: -7.23%.
On to `Cc1cc(C)cc(OCC(=O)Nc2cccc3cccnc23)c1`, for which the activation is inactive: -1.48%.
The result for `COC(=O)c1ccccc1NC(=O)[C@H]1O[C@@H]2OC(C)(C)O[C@@H]2[C@H]2OC(C)(C)O[C@H]21` reads inactive: -36.7%; that for `O=C(c1ccc2c(c1)N(Cc1ccc(Cl)cc1)C(=O)c1ccccc1S2(=O)=O)N1CCCC1`, inactive: -20.1%.
In the case of `CCOC(=O)c1ccc(N2C(=O)c3n[nH]c(-c4ccco4)c3C2c2ccc(C(=O)OC)cc2)cc1` (stereo not drawn), the activation is inactive: -1.98%.
The result for `CC(=O)Nc1cccc(-c2nc(-c3ccccc3)no2)c1` reads inactive: -0.287%; that for `CCCc1cnc2c(c1SCC(=O)NCc1ccc(C)cc1)c(=O)n(C)c(=O)n2C`, inactive: -12.2%; that for `CCCCCCC(=O)Nc1ccc2nc3c(=O)n(C)c(=O)n(C)c3nc2c1C`, inactive: -19.1%.
The figure for `CCCCOc1ccccc1C1CC(=O)Nc2ccc3ccccc3c21` (stereo not drawn) is inactive: -43.1%; for `CC(C)c1ccc(S(=O)(=O)N2CCN(Cc3cccc(F)c3)CC2)cc1` it is inactive: -22.9%; for `COc1ccccc1CCNC(=O)Cc1c(C)c2cc(Cl)c(O)cc2oc1=O` it is inactive: 15.1%.
In the case of `COc1ccc(C)c2sc(NC(=O)c3ccc(S(=O)(=O)N(C)C)cc3)nc12`, the activation was inactive: -3.35%.
In the case of `CCOc1ccc(CNC(=O)c2oc3c(c2C)-c2nn(Cc4cccc(Cl)c4)cc2CC3)cc1`, the activation was inactive: 10.3%.
The figure for `CC(=O)OCC(=O)[C@@]1(O)CCC2C3CCC4=CC(=O)CC[C@]4(C)C3[C@@H](O)C[C@@]21C` (stereo partly drawn) is inactive: -2.53%.
